# Hit rate of the full screen: of about 360,000 compounds, about 16,000 (4.4%) were called active. Inconclusive results, whose numbers are uncertain, are shown with a selection of clear calls. Calls follow the shape of the dose curve; as a rule, active = well fitted inhibition curve with a large enough effect; inconclusive = small, poorly fitted or top-dose-only effect; inactive = no such curve, though single readings can be large or run the other way. Where the call is inconclusive, the potency comes from a doubtful curve fit.
# Molecular target: Bromodomain adjacent to zinc finger domain protein 2B (Homo sapiens) (UniProt Q9UIF8)
# Test: qHTS Assay for Inhibitors of BAZ2B; also: nearly all actives have a fitted effect of over 60% in size
# Conditions: AlphaScreen BAZ2B-H3K14Ac peptide displacement; activity change, negative = inhibition: at 114 µM (top of the series)
# In short: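 Complex of BAZ2B and biotin-H3K14Ac (50 nM apiece) forms over 30 min at RT, then faces library compounds up to 110 uM for another 30 min; AlphaScreen beads added, 20 min dark incubation, luminescence read.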
# % is scaled to controls: 0 for no effect and ±100 for the full control effect; potency is read from the fitted curve at half-maximal effect; tags tell the direction and shape of the fitted curve.
# Sequence of UniProt Q9UIF8 (Q9UIF8 whole entry, looked up, the tested form may be a part): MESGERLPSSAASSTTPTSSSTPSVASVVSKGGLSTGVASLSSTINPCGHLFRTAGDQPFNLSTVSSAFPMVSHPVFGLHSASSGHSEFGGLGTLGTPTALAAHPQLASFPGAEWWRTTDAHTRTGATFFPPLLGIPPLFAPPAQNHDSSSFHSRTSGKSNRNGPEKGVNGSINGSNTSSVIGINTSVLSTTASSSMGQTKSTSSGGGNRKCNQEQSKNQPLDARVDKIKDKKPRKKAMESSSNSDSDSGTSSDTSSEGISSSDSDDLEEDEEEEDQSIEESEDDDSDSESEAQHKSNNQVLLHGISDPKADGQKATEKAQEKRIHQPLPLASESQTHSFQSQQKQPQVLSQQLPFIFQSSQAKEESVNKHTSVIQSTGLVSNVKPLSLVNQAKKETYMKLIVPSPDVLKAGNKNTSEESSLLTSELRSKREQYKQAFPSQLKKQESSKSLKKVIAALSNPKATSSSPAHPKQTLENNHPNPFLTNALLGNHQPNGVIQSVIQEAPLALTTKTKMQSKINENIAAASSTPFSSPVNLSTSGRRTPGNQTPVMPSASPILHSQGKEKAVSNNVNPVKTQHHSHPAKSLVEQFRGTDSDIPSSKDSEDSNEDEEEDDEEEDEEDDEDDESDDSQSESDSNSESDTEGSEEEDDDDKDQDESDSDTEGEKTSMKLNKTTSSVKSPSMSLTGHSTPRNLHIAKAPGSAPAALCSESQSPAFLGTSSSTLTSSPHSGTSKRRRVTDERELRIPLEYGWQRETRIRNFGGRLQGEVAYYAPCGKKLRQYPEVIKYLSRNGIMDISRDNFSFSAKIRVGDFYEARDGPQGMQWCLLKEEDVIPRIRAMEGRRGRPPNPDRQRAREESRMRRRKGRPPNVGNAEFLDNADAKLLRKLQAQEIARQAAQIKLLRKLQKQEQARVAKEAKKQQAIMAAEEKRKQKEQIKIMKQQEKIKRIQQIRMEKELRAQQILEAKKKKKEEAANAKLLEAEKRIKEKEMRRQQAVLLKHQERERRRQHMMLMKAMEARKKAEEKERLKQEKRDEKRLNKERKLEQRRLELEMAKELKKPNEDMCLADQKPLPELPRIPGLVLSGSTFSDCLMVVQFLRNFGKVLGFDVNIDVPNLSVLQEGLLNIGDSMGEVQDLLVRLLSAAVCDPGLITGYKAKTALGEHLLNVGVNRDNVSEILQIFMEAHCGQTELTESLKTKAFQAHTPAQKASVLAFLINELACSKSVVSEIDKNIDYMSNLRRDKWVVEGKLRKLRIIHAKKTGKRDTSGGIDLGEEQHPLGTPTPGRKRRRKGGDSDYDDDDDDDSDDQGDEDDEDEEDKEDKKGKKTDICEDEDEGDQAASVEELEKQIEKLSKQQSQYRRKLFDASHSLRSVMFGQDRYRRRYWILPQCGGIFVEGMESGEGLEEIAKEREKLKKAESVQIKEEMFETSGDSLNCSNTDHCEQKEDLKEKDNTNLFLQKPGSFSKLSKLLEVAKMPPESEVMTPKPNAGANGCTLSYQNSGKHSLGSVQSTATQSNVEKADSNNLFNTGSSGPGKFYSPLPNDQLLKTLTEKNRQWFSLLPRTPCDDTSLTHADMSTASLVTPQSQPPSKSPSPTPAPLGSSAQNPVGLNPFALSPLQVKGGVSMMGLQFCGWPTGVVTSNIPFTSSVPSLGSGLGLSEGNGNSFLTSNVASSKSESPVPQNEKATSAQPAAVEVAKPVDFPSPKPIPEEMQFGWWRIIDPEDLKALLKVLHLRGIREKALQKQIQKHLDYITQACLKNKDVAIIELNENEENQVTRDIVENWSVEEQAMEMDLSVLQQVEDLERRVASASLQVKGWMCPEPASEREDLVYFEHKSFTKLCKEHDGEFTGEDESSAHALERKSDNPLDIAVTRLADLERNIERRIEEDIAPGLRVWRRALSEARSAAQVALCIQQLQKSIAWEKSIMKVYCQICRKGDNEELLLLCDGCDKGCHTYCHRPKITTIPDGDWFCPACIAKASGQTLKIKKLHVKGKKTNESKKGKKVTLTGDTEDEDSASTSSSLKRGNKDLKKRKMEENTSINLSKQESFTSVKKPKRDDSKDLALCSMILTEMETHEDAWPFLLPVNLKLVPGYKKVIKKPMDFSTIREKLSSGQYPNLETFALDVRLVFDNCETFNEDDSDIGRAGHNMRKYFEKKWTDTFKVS
Structure (SMILES),Potency,"activity change, negative = inhibition"
Cc1ccccc1-n1c(O)c(/C=N/NC(=O)c2ccncc2)c(=O)[nH]c1=O,"inconclusive: 79.4 µM [inhibitor, single point]",–
CN1CSC(=S)N(C)C1,–,inactive: 3.25%
O=C(O)c1cc[c]([Hg][Cl])cc1,active: 1.26 µM,–
CC1CCN(CC#CCOc2ccc(Cl)cc2)CC1,active: 50.1 µM,–
O=[N+]([O-])c1cc(Cl)c(O)c(-[n+]2c(-c3ccccc3)cc(-c3ccccc3)cc2-c2ccccc2)c1,"inconclusive: 44.7 µM [inhibitor, partial curve]",–
COc1ccc2cc1Oc1ccc(cc1)C[C@H]1c3cc(c(OC)cc3CCN1C)Oc1c(OC)c(OC)cc3c1[C@H](C2)N(C)CC3,–,inactive: -31.8%
CC1=NN=C(c2ccc(N)cc2)c2cc3c(cc2C1)OCO3,"inconclusive: 56.2 µM [inhibitor, partial curve]",–
CCN(CC)P(=O)(Nc1ccc([N+](=O)[O-])cc1)c1c(C)nn(CCC#N)c1NC(=O)c1ccc(Cl)cc1Cl (configuration not stated),"inconclusive: 79.4 µM [inhibitor, single point]",–
COC(=O)C(C)NC(=S)N1CC2C[C@@H](C1)Cn1c2cccc1=O (some centres not stated),–,inactive: -0.198%
COc1ccc(N2C(=O)NC(=O)/C(=C/c3ccc4c(c3)Cc3ccccc3-4)C2=O)cc1,active: 35.5 µM,–
CN=C(SCc1ccccc1)c1c(O)n(C)c(=O)n(C)c1=O,–,inactive: -10.5%
CC/C(=N\NC(=O)c1ccccc1)c1c(O)n(Cc2ccccc2)c(=O)[nH]c1=O,–,inactive: -17.3%
CCN1C(=O)N(CC)C(=O)C2(Cc3ccccc3N3CCN(c4ccccc4)CC32)C1=O (configuration not stated),"inconclusive: 56.2 µM [inhibitor, partial curve]",–
O=c1[nH]c(O)c(N=Nc2ccc3c(c2)OCCO3)c(=O)[nH]1,"inconclusive: 44.7 µM [inhibitor, partial curve]",–
CC(C)(C)c1nc(N2CCN(C(=O)c3ccco3)CC2)c2nnn(Cc3ccccc3Cl)c2n1,"inconclusive: 39.8 µM [inhibitor, partial curve]",–
O=C1NC(=S)N(c2ccccc2F)C(=O)/C1=C\c1cccs1,active: 50.1 µM,–
Cc1c(C(c2ccccc2Cl)c2c(O)c3ccccc3oc2=O)c(=O)n(-c2ccccc2)n1C (configuration not stated),–,inactive: 0.545%
COc1ccc2c(c1)NP(=S)(Oc1ccccc1)N2 (configuration not stated),"inconclusive: 44.7 µM [inhibitor, partial curve]",–
COC(=O)c1c(C)n(Cc2ccco2)c2ccc(O)cc12,–,inactive: -34.6%
CCc1nnc(NC(=O)CSc2ccc(-c3ccco3)nn2)s1,active: 50.1 µM,–
Cc1cccc(Cn2cccc(C(=O)Nc3ccc4c(c3)OCCO4)c2=O)c1,–,inactive: -2.38%
Cc1ccccc1N1C(=O)NC(=O)/C(=C\c2cc(Br)c(N3CCOCC3)o2)C1=O,"inconclusive: 70.8 µM [inhibitor, single point]",–
Fc1ccccc1CNCCc1c[nH]c2ccccc12,active: 56.2 µM,–
Cc1cc(/C=C2\C(=O)NC(=O)N(c3cccc(F)c3)C2=O)c(C)n1-c1cc(C(=O)O)cc(C(=O)O)c1,active: 44.7 µM,–

Structure (SMILES),Potency,"activity change, negative = inhibition"
COC(=O)C1=C(c2cccc3c2S(=O)(=O)c2ccccc2-3)C[C@@H]2CC[C@H]1N2C(=O)N1CCc2cc(OC)c(OC)cc2C1,"inconclusive: 79.4 µM [inhibitor, single point]",–
O=c1[nH]c(=S)[nH]c(O)c1N=Nc1ccc(S(=O)(=O)N2CCOCC2)cc1,"inconclusive: 79.4 µM [inhibitor, single point]",–
Oc1cc2c(cc1CN1CCN(c3ccccc3)CC1)OCO2,"inconclusive: 50.1 µM [inhibitor, partial curve]",–
C[C@]12CC[C@@H]3c4cc(O)c(O)cc4CC[C@H]3[C@@H]1CC[C@@H]2O,"inconclusive: 63.1 µM [inhibitor, partial curve, poor fit]",–
COc1ccc(C2CC(c3c(O)n(CCc4ccccc4)c(=O)[nH]c3=O)=NN2)cc1OC (configuration not stated),active: 22.4 µM,–
COc1ccccc1N1CCN(Cc2c(F)cccc2Cl)CC1,"inconclusive: 70.8 µM [inhibitor, single point]",–
O=C(Cc1cccc(C(F)(F)F)c1)N1CCN(CC(=O)N2CCCC2)CC1,–,inactive: 2.8%
O=C1NC(=O)C(=Cc2ccc(OCCOc3ccc([N+](=O)[O-])cc3)cc2)C(=O)N1,active: 44.7 µM,–
CCCCc1ccc(NC(=O)c2ccc3c(c2)CCN3S(=O)(=O)CC)cc1,"inconclusive: 79.4 µM [inhibitor, single point]",–
Cc1ccc(CN(C)CCc2ccccn2)cc1,"inconclusive: 89.1 µM [inhibitor, single point]",–
Cc1cc(OC(=O)c2cccs2)c2c3c(c(=O)oc2c1)CCCC3,"inconclusive: 28.2 µM [inhibitor, single point]",–
COc1ccc(CN2C(=O)NC(=O)/C(=C/c3ccc([N+](=O)[O-])o3)C2=O)cc1,active: 14.1 µM,–
O=c1[nH]c(=O)n(-c2ccccc2)c(O)c1/C=C/C=Nc1ccccc1,–,inactive: -7.41%
Fc1ccc(C(OCCN2CCCC2)c2ccc(F)cc2)cc1,–,inactive: 4.7%
COCCNc1oc(-c2ccc(OC)cc2)nc1C#N,"inconclusive: 89.1 µM [inhibitor, single point]",–
CCN(CC)c1ccc(C=C2C(=O)N(C)C(=S)N(C)C2=O)o1,"inconclusive: 50.1 µM [inhibitor, partial curve]",–
Cc1ccc(CN2CCN(Cc3ccccc3)CC2)cc1,"inconclusive: 89.1 µM [inhibitor, single point]",–
Cc1cccc(-n2nc(C)c(C(=O)N3CCN(c4ccccc4)CC3)c2-n2cccc2)c1,"inconclusive: 39.8 µM [inhibitor, full curve]",–
COc1ccccc1N1CCN(Cc2ccccc2)CC1,active: 35.5 µM,–
Cc1ccc(CSCCNS(=O)(=O)c2ccc([N+](=O)[O-])cc2)cc1,"inconclusive: 35.5 µM [inhibitor, partial curve]",–
COC(=O)C1=C(c2ccc(F)cc2OCc2ccccc2)C[C@@H]2CC[C@H]1N2C(=O)NCc1ccc(N(C)C)cc1,active: 10 µM,–
CCOP(=O)(Cc1cc(C(=O)CC)c(C)o1)OCC,–,inactive: -5.1%
CCOc1ccc(OC(=O)c2ccc3c(=O)n4c(nc3c2)CCC4)cc1,"inconclusive: 89.1 µM [inhibitor, single point]",–
COc1ccc(CNCCc2ccc(Cl)cc2)c(OC)c1OC,"inconclusive: 89.1 µM [inhibitor, single point]",–

Structure (SMILES),Potency,"activity change, negative = inhibition"
COc1ccc(N2CCN(Cc3nc4ccccc4[nH]3)CC2)cc1,–,inactive: -25.8%
O=C(NC1CN2CCC1CC2)c1ccc(-c2ccc([N+](=O)[O-])cc2)o1 (configuration not stated),–,inactive: -29.8%
CCOC(=O)c1cnc2c(ccc3ccccc32)c1Nc1ccc(N(C)C)cc1,active: 6.31 µM,–
CCCCCCOc1ccc(CN2CCN(CCO)CC2)cc1,"inconclusive: 100 µM [inhibitor, single point]",–
O=C(O)Cn1cc(/C=C2\C(=O)NC(=O)N(Cc3ccco3)C2=O)c2ccccc21,active: 70.8 µM,–
C=CCn1c(O)c(C=Nc2ccc(Cc3ccncc3)cc2)c(=O)[nH]c1=S,"inconclusive: 79.4 µM [inhibitor, single point]",–
Cc1ccc(S(=O)(=O)N2CCCc3cc(NS(=O)(=O)c4cc(C)ccc4C)ccc32)cc1,"inconclusive: 79.4 µM [inhibitor, single point]",–
Cc1cccc(N2C(=O)NC(=O)/C(=C\c3ccc4c(c3)CCCN4Cc3ccccc3)C2=O)c1,"inconclusive: 56.2 µM [inhibitor, partial curve]",–
Cc1cccc(CNCCc2c[nH]c3ccccc23)c1,active: 39.8 µM,–
O=C(Nc1ccc(F)c([N+](=O)[O-])c1)c1cccn(Cc2ccccc2)c1=O,–,inactive: -2.25%
O=C(O)C(O)(c1ccccc1)C1CCCC1 (configuration not stated),"inconclusive: 89.1 µM [inhibitor, single point]",–
Cc1c(N=Cc2c(O)n(CCc3ccccc3)c(=O)[nH]c2=O)c(=O)n(-c2ccccc2)n1C,–,inactive: 5.96%
Cc1cccc(N=Nc2ccc(N(C)C)cc2)c1,active: 7.08 µM,–
COc1ccccc1N=Nc1ccc(N)c(C)c1,active: 35.5 µM,–
COC(=O)C1=C(c2ccccc2OCc2ccccc2)C[C@@H]2CC[C@H]1N2C(=O)NCc1ccc(N(C)C)cc1,active: 28.2 µM,–
Cc1cc(C)c2c(c1)-c1cc(C)nn1C(c1cccnc1)N2 (configuration not stated),"inconclusive: 79.4 µM [inhibitor, single point]",–
CCOc1cc(-c2ccc(N)c(OCC)c2)ccc1N,active: 14.1 µM,–
COc1ccc(-c2nn(-c3ccccc3)cc2C(=O)N2c3ccc(C)cc3C3CN(C)CCC32)cc1 (configuration not stated),"inconclusive: 70.8 µM [inhibitor, partial curve]",–
CN(C)P(=NC(=S)c1cccn1C)(N(C)C)N(C)C,"inconclusive: 89.1 µM [inhibitor, single point]",–
COc1ccc2nc(NC(=O)CCNS(=O)(=O)c3ccc4c(c3)oc(=O)n4C)sc2c1,"inconclusive: 100 µM [inhibitor, single point]",–
O=C(NCc1ccc2c(c1)OCO2)c1cc(-n2cnnc2)ccc1Cl,"inconclusive: 50.1 µM [inhibitor, partial curve]",–
CN1CCN(c2ccc(N)cc2)CC1,"inconclusive: 79.4 µM [inhibitor, single point]",–
O=C(O)C1Sc2[nH]c(=O)sc2C2c3cc(Cl)ccc3OC(=O)C12 (configuration not stated),"inconclusive: 89.1 µM [inhibitor, single point]",–
Cc1[nH]c2c(C(F)(F)F)cccc2c1CCN,"inconclusive: 89.1 µM [inhibitor, single point]",–

# — PubChem BioAssay AID504333 (National Center for Advancing Translational Sciences (NCATS), 2011)
